PubChem BioAssay AID485313 (National Center for Advancing Translational Sciences (NCATS), 2010)
Among all 320,000 compounds or so, about 7,600 (2.4%) were called active. This list was built around the results that the source calls inconclusive (neither active nor inactive); the mix of calls is not that of the screen. The call rests on the fitted dose curve; in most records, active means well fitted activation curve with a large enough effect; inconclusive means small, poorly fitted or top-dose-only effect; inactive means no such curve, though single readings can be large or run the other way. Where the call is inconclusive, the potency comes from a doubtful curve fit.

assay: qHTS Assay for NPC1 Promoter Activators; conditions: Huh7 NPC1 promoter luciferase reporter, 24 h; series mostly up to 9.22 µM; further: nearly all actives have a fitted effect of over 60% in size;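 on activation: reporter is driven by a mutant NPC1 promoter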
How it was run: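 Compounds in DMSO were transferred onto Huh7 NPC1-luciferase reporter cells pre-incubated 2 h; after 24 h at 37 °C, Amplite reagent was dispensed and luminescence recorded 10 min later.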
Potency means the concentration at half of the fitted maximal effect; tags describe the fitted curve by direction and shape.

Potency, inconclusive:
CC(=O)Nc1ccc(NC2=CC(=O)c3ccccc3C2=O)cc1 2.51 µM [activator, partial curve]
O=C(Nc1ccc(Cl)cc1)N1CC=CCC1 3.16 µM [activator, single point]
O=C(N/N=C/c1cccs1)c1n[nH]c2c1CCCC2 0.355 µM [activator, partial curve]
Cc1cccc(/C=N\N=C\c2cccc(C)c2)c1 3.16 µM [activator, single point]
CC(=O)c1cccc(NC(=S)N2CCc3ccccc32)c1 3.55 µM [activator, single point]
Nc1cc(Cl)nc(N/N=C/c2c(O)ccc3ccccc23)n1 5.01 µM [activator, single point]
CCOC(=O)c1cnc2cc(-c3ccc(Br)cc3)nn2c1C 2.82 µM [activator, partial curve]
CNc1ccccc(-c2ccc3ccccc3n2)c1=O 3.98 µM [activator, partial curve]
O=C(Nc1sc2c(c1C(=O)NCCO)CCCC2)c1ccco1 5.01 µM [activator, single point]
Cn1cnc2cc(NCc3ccccc3Cl)ccc21 3.16 µM [activator, single point]
O=C(Nc1ccccc1)c1ccc2nsnc2c1 5.62 µM [activator, single point]
COc1ccc(C(=O)c2coc3ccc(O)cc23)cc1 5.62 µM [activator, single point]
CCCCCC(=O)Nc1ccc2ccccc2c1 2 µM [activator, partial curve]
Cc1cc(/C=C(\C#N)C(=O)NCC2CCCO2)c(C)n1-c1ccc(Cl)cc1 (stereo not drawn) 4.47 µM [activator, single point]
CC1CCCN(C(=O)c2cc3c(=O)n4ccccc4nc3s2)C1 (stereo not drawn) 5.62 µM [activator, single point]
Cc1ccc(C(=O)Nc2nc(C(C)(C)C)cs2)s1 2.51 µM [activator, partial curve]
O=C(Nc1nc2c(s1)CCCC2)c1ccc2ncsc2c1 1.26 µM [activator, partial curve, poor fit]
COc1ccc(-c2csc(N3CCC(c4ccccc4)C3)n2)cc1 (stereo not drawn) 3.16 µM [activator, single point]
CC(C)(C)c1csc(NC(=O)c2ccccc2O)n1 1.41 µM [activator, partial curve]
COc1ccc(-c2noc(CCc3ccccc3)n2)cc1 3.16 µM [activator, single point]
Cc1cc(C(=O)COC(=O)c2cccc(S(=O)(=O)N(C)C)c2)c(C)n1CC1CCCO1 (stereo not drawn) 0.631 µM [activator, full curve]
COc1ccc(-n2cc(-c3ccccc3)[nH]c2=S)cc1 3.98 µM [activator, single point]
Cc1cccc(OC(=O)c2sc3ncn(C)c(=O)c3c2C)c1 3.55 µM [activator, single point]
O=C(CN1C(=O)c2ccccc2S1(=O)=O)c1cccc(Br)c1 0.447 µM [activator, partial curve]
Cc1ccc2c(COC(=O)c3ccccc3Br)cc(=O)oc2c1 5.62 µM [activator, single point]
CCOc1ccc(NC(=O)c2ccc(Br)o2)c([N+](=O)[O-])c1 5.62 µM [activator, single point]
O=C(CSc1nc(-c2ccccc2)ns1)NCC1CCCO1 (stereo not drawn) 3.55 µM [activator, single point]
CN(c1ccccc1)c1nc(N)c([N+](=O)[O-])c(N2CCCC2)n1 3.98 µM [activator, single point]
COc1ccc(Nc2ncnc3ccc(Br)cc23)c(OC)c1 5.62 µM [activator, single point]
CC(C)(C)c1ccc(NC(=O)CC2(C(F)(F)F)OCCO2)cc1 3.55 µM [activator, partial curve]
Cc1cc(C(=O)O/N=C(\N)c2ccncc2)ccc1[N+](=O)[O-] 3.16 µM [activator, single point]
CC(=O)c1ccc(OCc2cc(C(=O)N3CCCCC3c3cccnc3)no2)cc1 (stereo not drawn) 2.51 µM [activator, partial curve]
CC1SCC(NC(=O)c2ccccc2Cl)CS1 (stereo not drawn) 2.82 µM [activator, partial curve]
COc1ccc2cc(-c3ccsc3)ncc2c1 5.62 µM [activator, single point]
Cc1ccc(CNC(=O)Nc2ccccc2)cc1 3.55 µM [activator, partial curve]
O=C(c1ccc(-c2ccccc2Cl)o1)N1CCN(S(=O)(=O)c2cccs2)CC1 2.82 µM [activator, partial curve]
Cc1ccc2[nH]c(CNC(=O)c3ccccc3F)cc2c1 2.24 µM [activator, partial curve]
CCOC(=O)c1sc(=NC(=O)CCSc2ccccc2)n(C)c1C 5.62 µM [activator, single point]
O=C1OC(Nc2nccs2)c2ccccc21 (stereo not drawn) 3.16 µM [activator, single point]
COc1cc(Cl)ccc1OCc1cc(C(=O)N(C)Cc2cccc3cnccc23)no1 3.55 µM [activator, single point]
O=C(Nc1ccc(Cl)cc1)c1ccc(S(=O)(=O)N2CCOCC2)cc1 1 µM [activator, single point]
NC(N)=NC(=S)Nc1ccc(Cl)cc1 2.24 µM [activator, partial curve]
CCCCC(=O)Nc1nc2ccc(C(=O)OC)cc2s1 3.16 µM [activator, partial curve]
c1ccc(C2=Nc3ccccc3OC2)cc1 5.62 µM [activator, single point]
Cn1c(=O)c(C(=O)NC2CCCCCC2)c(O)c2ccccc21 4.47 µM [activator, single point]

Potency, active:
O=C(Nc1cccnc1Cl)c1ccc2c(Cl)c3c(nc2c1)CCC3 1 µM
Cc1ccc(C(=O)CN2C(=O)NC3(CCCCCC3)C2=O)c(C)c1 3.98 µM
CN(C)c1ccc(NC(=O)CCCc2ccccc2)cc1 3.98 µM
S=C(NCCc1ccccc1)NCCc1ccccc1 4.47 µM
CC(C)(C)n1ncc2c(=O)n(CC(=O)NCc3ccccc3Cl)cnc21 0.398 µM
O=C(NCc1ccccc1)c1noc2c1CCCCC2 3.55 µM
CCOc1ccc(-c2nnc(-c3cccs3)o2)cc1 0.708 µM
Cc1cccc(C(=O)Nc2ccc3c(c2)ncn3C)c1 1.58 µM
CCc1ccc(OCC(=O)N2CCc3ccccc32)cc1 3.55 µM
O=C(Nc1ccccc1Cl)C(=O)c1cn(CC(=O)N2CCOCC2)c2ccccc12 3.55 µM
Cc1cccc(-c2noc(CSc3ccccc3)n2)c1 2.51 µM
Cc1cc(C)cc(NC(=O)Nc2ccc(N3CCCCC3)cc2)c1 3.55 µM
Cc1ccc2c(c1)c1cccc3c1n2CCN3CCC(N)=O 3.16 µM
CCOc1ccc(N/C(C)=C/C(=O)c2ccc3c(c2)OCCO3)cc1 3.16 µM

Potency, inactive:
CC(C)c1ccc(CN2CCN(C(=O)CCl)CC2)cc1
O=C(Nc1ccc(Cl)cc1)Nc1cccnc1
O=S(=O)(Nc1nc2ccccc2nc1N1CCN(c2ccccc2F)CC1)c1ccc(Cl)cc1
N#CCSc1ccccc1NC(=O)COC(=O)CCN1C(=O)C2CC=CCC2C1=O (stereo not drawn)
CC(=O)Nc1ccc(C(=O)OCC(=O)c2ccc(F)cc2)cc1
CCc1nc2ccccc2c(C(=O)OCC(=O)Nc2ccc(S(=O)(=O)N3CCOCC3)cc2)c1C
O=C(CCS(=O)(=O)c1ccccc1F)Nc1ccc(N2CCN(Cc3ccccc3)CC2)cc1
Cn1nc(C(=O)OCC(=O)Nc2ccccc2[N+](=O)[O-])c2ccccc2c1=O
CCCCOCCCNC(=O)N[C@H](C(=O)OC)C(C)CC (stereo partly drawn)
COc1ccc(OC(=O)N2CCOCC2)cc1
COCCSc1nnc(NC(=O)c2ccc([N+](=O)[O-])cc2)s1
Nn1c(SCc2nc3ccccn3c2Br)nnc1-c1cccnc1
COc1ccc(C(=O)NCc2nnc(SCC(=O)N3CCCC3)o2)cc1
Cc1ccc(SCc2ccc(C(=O)Nc3ccccc3C(=O)NC(C)C)cc2)cc1
O=C(NC1CCCCC1)C(c1ccccn1)N(C(=O)c1csnn1)c1ccccc1 (stereo not drawn)
CC(=O)N1N=C(c2ccc(C)cc2)OC1c1ccc(Br)cc1 (stereo not drawn)
Cc1ccc(CN2CC(C(=O)N3CCN(S(=O)(=O)c4ccc(C(C)C)cc4)CC3)CC2=O)cc1 (stereo not drawn)
O=c1cc(N2CCN(c3cccc(Cl)c3)CC2)[nH]c(=O)n1C1CCCCC1
CCOc1ccc(/C=C2\SC(=S)N(CC(=O)Nc3ccccn3)C2=O)cc1
